By % Inhibition is commonly meant the change of the read-out against control, counted positive when it falls.

Out of some 150,000 compounds screened, about 540 (0.36%) showed an effect of 50% or more. Some of the results follow.

The test system of this assay is Plasmodium falciparum. The assay can be described thus: Primary screen in NF54 nanoGlo assay, in single point, at 2uM, 72h; a lower Z score goes with more inhibition. It is filed as functional, Erythrocyte. The note with it: timepoint 72 hour.
Turning to `Cn1ccc(-c2nc(CNc3nc4cc(Cl)cc(Cl)c4o3)cs2)n1`, the “% Inhibition” value was -7% and the Z score amounted to 1.61.
Consider `O=C(c1ccco1)N1CCC[C@H](NC2CCC3(CCNCC3)CC2)C1`, for which the “% Inhibition” value is recorded as -1% and the Z score is 0.3.
The like results for `CC(C)N1CCN(CCCN2CCCN(C(=O)c3ccc(F)cc3)CC2)CC1` were, in that order, -4% and 0.85.
Consider `NC(=O)[C@@H]1CCCN1C1CCN(c2ccnc3c(F)cccc23)CC1`, for which the “% Inhibition” value is given as 0% and the Z score is 0.08.
As to `Cn1ncc2c(NCc3ccc4c(c3)OCCCO4)nc(C3CCCC3)nc21`, the “% Inhibition” value worked out at 2% and the Z score is reported as -0.28.
For the molecule `Cc1cccc(N2CCN(c3ncnc4c3[nH]c3ccccc34)C[C@@H]2C)c1`, the “% Inhibition” value is given as -8% and the Z score came to 1.33.
On the same counts, the results for `C[C@@H](c1nc(-c2cccc(C(F)(F)F)c2)no1)N1CCN(Cc2csc(-c3ccco3)n2)CC1` are -9% and 1.85.
For `O=C(c1cccnc1NC[C@H]1CCN(C2CCCCC2)C1)N1CCCC1`, the “% Inhibition” value turned out to be 3% and the Z score is listed as -0.52.
Turning to `CN1CCC(N2CCC(CCN(C)C(=O)N[C@@H]3CCCNC3)CC2)CC1`, the “% Inhibition” value is -1% and the Z score was 0.12.
Regarding `O[C@@H](CNC1CCN(c2ncnc3[nH]cnc23)CC1)COC1CCCCC1`, the “% Inhibition” value is -11% and the Z score was found to be 2.45.
On the same counts, the results for `CCN(CC)S(=O)(=O)c1ccc2[nH]cc(C(=O)NCCCN3CCC(N4CCCCC4)CC3)c(=O)c2c1` are -9% and 1.47.
The like results for `Cc1noc(-c2ccc(-c3cccc(C(=O)N4CCC5CNCC54)c3)nc2)n1` (stereo unspecified) were, in that order, -3% and 0.66.
`COc1ncncc1-c1ccc2c(c1)OC(C)(C)C(=O)N2`: the “% Inhibition” value is -4% and the Z score amounted to 0.66.
Turning to `O[C@@H]1CN(c2ccncc2)CCN(C2CCC3(CCNCC3)CC2)C1`, the “% Inhibition” value is on record as -4% and the Z score is 0.84.
On to `CC(C)OC(=O)N1CCC(NCCc2csc(-c3cnccn3)n2)CC1`, for which the “% Inhibition” value is recorded as -4% and the Z score is recorded as 0.83.
The like results for `COc1ccc(F)cc1CNC1CCN(C)CC1` were, in that order, -4% and 0.62.
On the same counts, the results for `N#Cc1ccc(CN2CCC(Nc3cccc(OCC(F)F)n3)CC2)cc1` are 2% and -0.27.
In the case of `COCCNc1nc(N[C@@H](C)c2ccccc2)c2ccccc2n1`, the “% Inhibition” value was 52% and the Z score is recorded as -11.2.
For the molecule `CN1CCC(N2CCC[C@H]2C(=O)N(C)Cc2cccc3cnccc23)CC1`, the “% Inhibition” value was -8% and the Z score is given as 1.36.
On the same counts, the results for `Cc1ccc2[nH]c(CNC[C@@H](CO)C3CCC3)cc2c1C` are 28% and -4.25.
For the molecule `CN(C)Cc1ccccc1-c1ccc2cn[nH]c2c1`, the “% Inhibition” value is on record as -3% and the Z score amounted to 0.51.
As for `Cc1cccc(NC(=O)CCNC2CCN(c3ccc(F)cc3C)CC2)c1`, the “% Inhibition” value was -5% and the Z score worked out at 0.83.
As for `CN1CCCN(CC(=O)Nc2ccc(-c3cccc(F)c3F)cn2)CC1`, the “% Inhibition” value was -6% and the Z score was 1.21.

For the origin of these results see ChEMBL document CHEMBL5308541, “MAIP: An Open-Source Tool to Enrich High-Throughput Screening Output and Identify Novel, Druglike Molecules with Antimalarial Activity” (ACS Med Chem Lett, 2023).
